PubChem BioAssay AID504832 (National Center for Advancing Translational Sciences (NCATS), 2011)
Among all 310,000 compounds or so, about 18,000 (5.8%) were called active. Inconclusive results, whose numbers are uncertain, are shown with a selection of clear calls. Calls come from the whole dose curve; as a rule, active = well fitted inhibition curve with a large enough effect; inconclusive = small, poorly fitted or top-dose-only effect, or another doubt; inactive = no such curve, though single readings can be large or run the other way. No potency is given beside an inconclusive call; the fits are too rough.

Experiment: Primary qHTS for delayed death inhibitors of the malarial parasite plastid, 48 hour incubation
Conditions: P. falciparum luciferase growth in erythrocytes; series mostly up to 28.7 µM; activity change, negative = inhibition: at the top concentration
Summary of the method: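 First compound was added to culture medium, then infected red cells at 0.1% parasitemia and 2% hematocrit (final). After incubation at 37 C under 5% CO2, luciferase detection reagent was dispensed and light output recorded.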
% is set by controls: 0 for no effect and ±100 for the full control effect; potency is the fitted concentration of half-maximal effect; tags give direction and shape of the fitted curve.

Row | Structure (SMILES) | Potency | activity change, negative = inhibition
1 | CC(C)Cn1c(N)c(C(=O)COC(=O)C2Cc3ccccc3CN2S(C)(=O)=O)c(=O)n(C)c1=O (centres undefined) | active: 11.7 µM | –
2 | CCOC(=O)Cc1csc(NC(=O)CSc2nncn2C)n1 | inconclusive [inhibitor, partial curve, poor fit] | –
3 | COC(=O)N/N=C/c1cccs1 | – | inactive: 30.5%
4 | O=C(NCCO)C(=O)NCC1CCCN1S(=O)(=O)c1cccs1 (centres undefined) | inconclusive [inhibitor, single point] | –
5 | Cc1ccc(S(=O)(=O)Cn2nnnc2C(CC(C)C)N2CCC(C(N)=O)CC2)cc1 (centres undefined) | inconclusive [inhibitor, single point] | –
6 | COc1ccc(N2CCN(Cc3nc4c(c(=O)n(C)c(=O)n4C)n3Cc3cccc(C)c3)CC2)cc1 | inconclusive [inhibitor, full curve, poor fit] | –
7 | COc1cccc(/C=N/Nc2ncc(C(F)(F)F)cc2Cl)c1O | active: 1.04 µM | –
8 | O=S(=O)(c1cccc2nsnc12)N1CCCC1 | – | inactive: 0.154%
9 | Cc1nnc(N/N=C/c2cccc(C(F)(F)F)c2)n1N | – | inactive: -4.38%
10 | Cc1noc2ncnc(N3CCN(c4cccc(Cl)c4)CC3)c12 | inconclusive [inhibitor, single point] | –
11 | O=C(CSc1nc2ccccc2nc1SCC(=O)N1CCCCC1)N1CCCCC1 | inconclusive [inhibitor, full curve] | –
12 | CCc1ccc(C(C(=O)NCc2ccc(F)cc2)N(C(=O)c2csnn2)C2CC2)cc1 (centres undefined) | inconclusive [inhibitor, single point] | –
13 | COc1ccc(-c2csc3ncnc(Cl)c23)cc1 | active: 1.31 µM | –
14 | O=C(Nc1cnn(Cc2ccc(Cl)cc2)c1)c1cnccn1 | – | inactive: -1.26%
15 | C=CCOc1cccc(C(=O)N2CCCC(Nc3ccc4c(c3)OCCO4)C2)c1 (centres undefined) | inconclusive [inhibitor, partial curve, poor fit] | –
16 | COc1ccc(C(C(=O)NC2CCCC2)N(CCC(C)C)C(=O)CCC(=O)Nc2cc(C)on2)cc1 (centres undefined) | inconclusive [inhibitor, partial curve, poor fit] | –
17 | Cc1ccc(S(=O)(=O)/N=C(\N)Nc2nc(C)c3cc(C)ccc3n2)cc1 | inconclusive [inhibitor, partial curve, poor fit] | –
18 | O=C(N/C(=C/C=C/c1ccccc1)C(=O)N1CCCCC1)c1ccc([N+](=O)[O-])cc1 | inconclusive [inhibitor, partial curve, poor fit] | –
19 | O=C(CC1C(=O)N(c2ccccc2)C(=O)N1Cc1ccco1)Nc1ccccc1 (centres undefined) | – | inactive: 13.4%
